From the supplement of paper PMC9446081
The whole screen tested about 39,000 compounds, of which about 220 (0.56%) showed activity. The list shows a part of the results.

test system: Escherichia coli K-12 BW25113; test: relative growth (OD600 normalised to plate interquartile mean) (fraction); higher = less growth inhibition, active = 0.2 or less; conditions: 50 µM; LB; incubation time: overnight (16-24 h)
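Also: static incubation at 37 °C against the wild-type strain, values averaged over two biological replicates.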

SMILES | relative growth
Cc1ccc(-n2nccn2)c(C(=O)N2CCN(c3nc4cc(Cl)ccc4o3)CCC2C)c1 (centres undefined) | inactive: 0.992
O=[N+]([O-])c1cc([As](=O)(O)O)ccc1O | inactive: 1.13
O=C1CC2OCC=C3CN4CCC56c7ccccc7N1C5C2C3CC46.O=S(=O)(O)O (centres undefined) | inactive: 1.06
O=C1NCN(c2ccccc2)C12CCNCC2 | inactive: 0.957
Cl.NCC(CC(=O)O)c1ccc(Cl)cc1 (racemic) | inactive: 1.03
CN1CCN(C(=O)[C@H]2C[C@H]3CN(c4ncccn4)C[C@@H]3N2C)CC1 | inactive: 0.975
C#CCO[C@H]1CN2CCC1CC2 | inactive: 1
N[C@@H](C(=O)O)c1nn[nH]n1 | inactive: 1.03
C=C(C)[C@@H]1CCC(C)=C[C@H]1c1c(OC)cc(C)cc1OC | inactive: 0.989
CC(C)[C@@]1(NC(=O)[C@H]2C[C@@H]3c4cccc5[nH]cc(c45)C[C@H]3N(C)C2)O[C@@]2(O)[C@H]3CCCN3C(=O)[C@@H](Cc3ccccc3)N2C1=O | inactive: 1.02
O=C1CC[C@@H]2NCC[C@H]2N1 | inactive: 0.986
N[C@H]1CCN(c2cccnc2)C1 | inactive: 0.979
O=c1[nH]oc2c1CCNC2 | inactive: 1
CC12CCC3C(CCC4CC(O)CCC43C)C1CCC2O (centres undefined) | inactive: 0.98
O[C@H]1CNC[C@@H]1N1CCCC1 | inactive: 0.971
C[As](C)SC[C@H](NC(=O)CC[C@H](N)C(=O)O)C(=O)NCC(=O)O | inactive: 0.984
COC(=O)[C@]1(Cc2ccccc2CN=[N+]=[N-])N=C(c2ccc(OCCCO)cc2)O[C@@H]1c1ccccc1CN=[N+]=[N-] | inactive: 1.04
CC(C)CC(CN)CC(=O)O (centres undefined) | inactive: 1.07
CN(C)[C@@H](CN)c1cn(C)c2ccccc12 | inactive: 1.02
C[CH2][Hg][S]c1ccccc1C(=O)[O-].[Na+] | active: 0.0484
CC(=O)CC1CCCCN1.Cl (centres undefined) | inactive: 1.01
NCCc1ccc(O)cc1 | inactive: 1.04

SMILES | relative growth
CCC(c1cccc(O)c1)C(C)CN(C)C.Cl (centres undefined) | inactive: 0.847
CCC12C=CCN3CCC4(c5ccc(OC)cc5N(C)C4C(O)(C(=O)OC)C1OC(C)=O)C32 (centres undefined) | inactive: 1.01
[N-]=[N+]=CC(=O)OCC(N)C(=O)O (centres undefined) | inactive: 0.893
C[C@@H](N)[C@@H](O)c1ccccc1 | inactive: 0.978
C[C@H](O)[C@@]12[C@H]3CC=C[C@@H]1N2CC3 (some centres undefined) | inactive: 0.987
CN1C[C@H]2CON[C@@H]2C1 | inactive: 1.01
Cn1cc(NC(=O)c2cc(NC(=O)CNC(=N)N)cn2C)cc1C(=O)NCCC(=N)N | inactive: 1.01
O=C(NC[C@H]1CC[C@@H]2NC[C@@H]2O1)C1CCCC1 | inactive: 0.98
Cl.N=C(N)NN | inactive: 0.909
CCC1(c2ccc(N)cc2)CCC(=O)NC1=O (centres undefined) | inactive: 1.11
O=C(NCNC(=O)N[C@H]1C(=O)NC(=O)N1CO)N[C@H]1C(=O)NC(=O)N1CO | inactive: 0.902
CNCC(=O)c1ccc(O)c(O)c1.Cl | inactive: 1.07
Cc1[nH]c2ccccc2c1CN(C)C | inactive: 1.04
C[C@@H](N)Cc1cnc[nH]1 | inactive: 0.996
Cc1ccc(OC(=O)N(C)C[C@H]2OCc3ccccc3-c3c(n(C)c4ccccc34)C(=O)N([C@H](C)CO)C[C@@H]2C)cc1 | inactive: 1
COc1ccc2c3c([nH]c2c1)C(C)=NCC3 | inactive: 0.921
N[C@H]1CNC(=O)C1 | inactive: 1.01
CC1CCC2(NC1)OC1CC3C4CC=C5CC(O)CCC5(C)C4CCC3(C)C1C2C (centres undefined) | inactive: 0.957
CN(CC[C@@H](N)CC(=O)N[C@H]1C=C[C@H](n2ccc(N)nc2=O)O[C@@H]1C(=O)O)C(=N)N | inactive: 0.949
COc1ccc(O)c(C(C)(C)C)c1 | inactive: 0.926
COC(=O)C[C@@H]1CC[C@@H]2NC[C@H](O)COC[C@H]2O1 | inactive: 0.991
CC(C)=CCC[C@]1(C)C=Cc2c(O)c3c(c(CC=C(C)C)c2O1)O[C@]12[C@H](C[C@@H]4C[C@H]1C(C)(C)O[C@]2(C/C=C(/C)C(=O)O)[C@@H]4O)C3=O | inactive: 0.877

SMILES | relative growth
CC(C)(C)c1o[nH]c(=O)c1C[C@@H](N)C(=O)O | inactive: 0.984
[O-][n+]1ccccc1[S][Zn][S]c1cccc[n+]1[O-] | active: 0.0506
CN[C@H]1C[C@@H](N)[C@H](O)[C@@H](O[C@@H]2O[C@H](CO)[C@H](O)[C@@H]3O[C@@]4(O[C@H]23)O[C@H]([C@@H](N)CO)[C@H](O)[C@H](O)[C@H]4O)[C@@H]1O | active: 0.0323
N=C1NC(=O)N2CC12 (centres undefined) | inactive: 0.832
Cc1ccc(C[C@H]2CCCN2)cc1C | inactive: 0.99
O=c1cccc2n1C[C@@H]1C[C@H]2CN(CCO)C1 | inactive: 1.02
NC(=O)c1cn([C@H]2O[C@@H](CO)[C@H](O)[C@@H]2O)c2ncnc(N)c12 | inactive: 0.892
CO[C@@H]1[C@H](OC(=O)NC(=O)CCl)CC[C@]2(CO2)[C@H]1[C@@]1(C)O[C@@H]1CC=C(C)C | inactive: 0.986
Cc1ccc(C)c(C(=O)[C@H](N)CC(C)C)c1 | inactive: 0.907
O=C1NCc2cnnn2-c2ccccc21 | inactive: 0.974
C[C@@H](N)Cc1ccc(O)cc1 | inactive: 0.992
CN1CCCN(Cc2ccc(CN)cc2)CC1 | inactive: 1.02
CC(C)(C)OC(=O)N1C[C@H]2C[C@@H]1CN2 | inactive: 1
CCC(CC)C(=O)N[C@@H]1[C@@H]2CNC[C@@H]21 | inactive: 1.01
CCC1(CC)C(=O)C=CNC1=O | inactive: 1.11
O=C(O)CNCP(=O)(O)O | inactive: 0.997
CC1CCC2(NC1)OC1CC3C4CCC5CC(O)CCC5(C)C4CCC3(C)C1C2C.Cl (centres undefined) | inactive: 0.964
C=C(C)C1Cc2c(ccc3c(=O)c4c(oc23)COc2cc(OC)c(OC)cc2-4)O1 (centres undefined) | inactive: 0.962
COc1ccc(C=O)cc1 | inactive: 1.03
CC(=O)OCC1=C(C(=O)[O-])N2C(=O)C(NC(=O)CCCC(N)C(=O)[O-])C2SC1.[Zn+2] (centres undefined) | inactive: 0.996
